Drawing on paper PMC12102759 (2025), this text covers screen value for 75 variants.

The chains are these.
B1: NFE2L1 peptide 226-241 (Endoplasmic reticulum membrane sensor NFE2L1), 16-mer library wild type / KEAP1 KELCH (KEAP1 6 Kelch repeats, […]) (parent complex)
chain 1: RNLLVDGETGESFPAQ
chain 2: not shown

Variants of B1 are the subject of the assay. Put plainly: proteomic peptide phage display deep mutational scan (ProP-PD DMS): M13 P8 16-mer library selected against immobilised GST-tagged bait for four days (rounds), NGS of the eluted pools per day and pseudo-replica; bait immobilised on MaxiSorp plates (10 µg), library pre-cleared on GST, 2 h binding at 4 °C, five washes; one round per day, days 1-4; value from days 2 and 3.
Regarding chain 1 E11Q, the screen value is 0.00189 average fractional NGS count over selection days 2 and 3 (reads of this peptide / all reads for the bait, averaged over ….
chain 1 E11M: the screen value is 0.000506 average fractional NGS count over selection days 2 and 3 (reads of this peptide / all reads for the bait, averaged over ….
chain 1 E11I: the screen value is 0.00272 average fractional NGS count over selection days 2 and 3 (reads of this peptide / all reads for the bait, averaged over ….
On to chain 1 E11T, for which the screen value was 0.000515 average fractional NGS count over selection days 2 and 3 (reads of this peptide / all reads for the bait, averaged over ….
With chain 1 E11H, the screen value is 0.000503 average fractional NGS count over selection days 2 and 3 (reads of this peptide / all reads for the bait, averaged over ….
For chain 1 E11V, the screen value is 0.000298 average fractional NGS count over selection days 2 and 3 (reads of this peptide / all reads for the bait, averaged over ….
The result for chain 1 Q16G reads 0.00024 average fractional NGS count over selection days 2 and 3 (reads of this peptide / all reads for the bait, averaged over …; that for chain 1 Q16I, 0.000157 average fractional NGS count over selection days 2 and 3 (reads of this peptide / all reads for the bait, averaged over …; that for chain 1 Q16N, 0.000263 average fractional NGS count over selection days 2 and 3 (reads of this peptide / all reads for the bait, averaged over ….
For chain 1 Q16W, the screen value was 0.000264 average fractional NGS count over selection days 2 and 3 (reads of this peptide / all reads for the bait, averaged over ….
Turning to chain 1 Q16M, the screen value is 0.000404 average fractional NGS count over selection days 2 and 3 (reads of this peptide / all reads for the bait, averaged over ….
For chain 1 Q16H, the screen value was 0.00105 average fractional NGS count over selection days 2 and 3 (reads of this peptide / all reads for the bait, averaged over ….
With chain 1 Q16V, the screen value is 0.00235 average fractional NGS count over selection days 2 and 3 (reads of this peptide / all reads for the bait, averaged over ….
On to chain 1 Q16Y, for which the screen value is 0.00181 average fractional NGS count over selection days 2 and 3 (reads of this peptide / all reads for the bait, averaged over ….
chain 1 Q16T: the screen value was 0.00032 average fractional NGS count over selection days 2 and 3 (reads of this peptide / all reads for the bait, averaged over ….
As to chain 1 Q16P, the screen value was 0.000232 average fractional NGS count over selection days 2 and 3 (reads of this peptide / all reads for the bait, averaged over ….
With chain 1 Q16L, the screen value is 0.000141 average fractional NGS count over selection days 2 and 3 (reads of this peptide / all reads for the bait, averaged over ….
As to chain 1 Q16A, the screen value is 0.000163 average fractional NGS count over selection days 2 and 3 (reads of this peptide / all reads for the bait, averaged over ….
The result for chain 1 Q16F reads 0.00184 average fractional NGS count over selection days 2 and 3 (reads of this peptide / all reads for the bait, averaged over ….
On to chain 1 Q16K, for which the screen value is 0.00058 average fractional NGS count over selection days 2 and 3 (reads of this peptide / all reads for the bait, averaged over ….
As to chain 1 Q16E, the screen value is 0.000148 average fractional NGS count over selection days 2 and 3 (reads of this peptide / all reads for the bait, averaged over ….
The result for chain 1 G7H reads 0.00649 average fractional NGS count over selection days 2 and 3 (reads of this peptide / all reads for the bait, averaged over ….
For chain 1 G7L, the screen value was 0.00132 average fractional NGS count over selection days 2 and 3 (reads of this peptide / all reads for the bait, averaged over ….
Turning to chain 1 G7M, the screen value is 0.00399 average fractional NGS count over selection days 2 and 3 (reads of this peptide / all reads for the bait, averaged over ….
With chain 1 G7N, the screen value is 0.000405 average fractional NGS count over selection days 2 and 3 (reads of this peptide / all reads for the bait, averaged over ….
On to chain 1 G7T, for which the screen value is 0.00226 average fractional NGS count over selection days 2 and 3 (reads of this peptide / all reads for the bait, averaged over ….
The result for chain 1 D6V reads 0.000263 average fractional NGS count over selection days 2 and 3 (reads of this peptide / all reads for the bait, averaged over …; that for chain 1 D6F, 0.000181 average fractional NGS count over selection days 2 and 3 (reads of this peptide / all reads for the bait, averaged over …; that for chain 1 D6S, 0.00307 average fractional NGS count over selection days 2 and 3 (reads of this peptide / all reads for the bait, averaged over ….
In the case of chain 1 D6Q, the screen value was 0.00147 average fractional NGS count over selection days 2 and 3 (reads of this peptide / all reads for the bait, averaged over ….
Turning to chain 1 D6A, the screen value was 0.000331 average fractional NGS count over selection days 2 and 3 (reads of this peptide / all reads for the bait, averaged over ….
Take chain 1 D6M: the screen value was 0.000129 average fractional NGS count over selection days 2 and 3 (reads of this peptide / all reads for the bait, averaged over ….
Regarding chain 1 D6N, the screen value was 0.00145 average fractional NGS count over selection days 2 and 3 (reads of this peptide / all reads for the bait, averaged over ….
chain 1 D6I: the screen value is 0.000578 average fractional NGS count over selection days 2 and 3 (reads of this peptide / all reads for the bait, averaged over ….
The result for chain 1 D6L reads 0.000213 average fractional NGS count over selection days 2 and 3 (reads of this peptide / all reads for the bait, averaged over …; that for chain 1 D6H, 0.0427 average fractional NGS count over selection days 2 and 3 (reads of this peptide / all reads for the bait, averaged over …; that for chain 1 D6Y, 0.000835 average fractional NGS count over selection days 2 and 3 (reads of this peptide / all reads for the bait, averaged over ….
The result for chain 1 S12L reads 0.000448 average fractional NGS count over selection days 2 and 3 (reads of this peptide / all reads for the bait, averaged over ….
On to chain 1 S12H, for which the screen value is 0.000505 average fractional NGS count over selection days 2 and 3 (reads of this peptide / all reads for the bait, averaged over ….
chain 1 S12V: the screen value is 0.000339 average fractional NGS count over selection days 2 and 3 (reads of this peptide / all reads for the bait, averaged over ….
Consider chain 1 S12G, for which the screen value is 0.000406 average fractional NGS count over selection days 2 and 3 (reads of this peptide / all reads for the bait, averaged over ….
For the variant chain 1 S12P, the screen value was 0.000126 average fractional NGS count over selection days 2 and 3 (reads of this peptide / all reads for the bait, averaged over ….
In the case of chain 1 S12D, the screen value was 0.00035 average fractional NGS count over selection days 2 and 3 (reads of this peptide / all reads for the bait, averaged over ….
With chain 1 S12K, the screen value was 0.00103 average fractional NGS count over selection days 2 and 3 (reads of this peptide / all reads for the bait, averaged over ….
Take chain 1 S12Y: the screen value was 0.000205 average fractional NGS count over selection days 2 and 3 (reads of this peptide / all reads for the bait, averaged over ….
On to chain 1 S12E, for which the screen value was 0.000332 average fractional NGS count over selection days 2 and 3 (reads of this peptide / all reads for the bait, averaged over ….
chain 1 S12R: the screen value is 0.000442 average fractional NGS count over selection days 2 and 3 (reads of this peptide / all reads for the bait, averaged over ….
On to chain 1 S12M, for which the screen value was 0.000458 average fractional NGS count over selection days 2 and 3 (reads of this peptide / all reads for the bait, averaged over ….
Take chain 1 S12Q: the screen value was 0.000125 average fractional NGS count over selection days 2 and 3 (reads of this peptide / all reads for the bait, averaged over ….
chain 1 S12A: the screen value was 0.00138 average fractional NGS count over selection days 2 and 3 (reads of this peptide / all reads for the bait, averaged over ….
The result for chain 1 S12T reads 0.000578 average fractional NGS count over selection days 2 and 3 (reads of this peptide / all reads for the bait, averaged over …; that for chain 1 S12F, 0.000312 average fractional NGS count over selection days 2 and 3 (reads of this peptide / all reads for the bait, averaged over ….
Turning to chain 1 E8S, the screen value was 0.0098 average fractional NGS count over selection days 2 and 3 (reads of this peptide / all reads for the bait, averaged over ….
Turning to chain 1 E8T, the screen value was 0.000832 average fractional NGS count over selection days 2 and 3 (reads of this peptide / all reads for the bait, averaged over ….
Turning to chain 1 E8N, the screen value was 0.000163 average fractional NGS count over selection days 2 and 3 (reads of this peptide / all reads for the bait, averaged over ….
Take chain 1 E8A: the screen value is 0.000233 average fractional NGS count over selection days 2 and 3 (reads of this peptide / all reads for the bait, averaged over ….
For the variant chain 1 E8V, the screen value was 0.00531 average fractional NGS count over selection days 2 and 3 (reads of this peptide / all reads for the bait, averaged over ….
As to chain 1 E8D, the screen value is 0.000913 average fractional NGS count over selection days 2 and 3 (reads of this peptide / all reads for the bait, averaged over ….
As to chain 1 E8G, the screen value was 0.0476 average fractional NGS count over selection days 2 and 3 (reads of this peptide / all reads for the bait, averaged over ….
The result for chain 1 E8M reads 0.000538 average fractional NGS count over selection days 2 and 3 (reads of this peptide / all reads for the bait, averaged over …; that for chain 1 V5M, 0.000559 average fractional NGS count over selection days 2 and 3 (reads of this peptide / all reads for the bait, averaged over …; that for chain 1 V5W, 0.00157 average fractional NGS count over selection days 2 and 3 (reads of this peptide / all reads for the bait, averaged over ….
On to chain 1 V5N, for which the screen value was 0.00052 average fractional NGS count over selection days 2 and 3 (reads of this peptide / all reads for the bait, averaged over ….
With chain 1 V5I, the screen value was 0.000268 average fractional NGS count over selection days 2 and 3 (reads of this peptide / all reads for the bait, averaged over ….
The result for chain 1 V5Q reads 0.00016 average fractional NGS count over selection days 2 and 3 (reads of this peptide / all reads for the bait, averaged over …; that for chain 1 V5F, 0.000252 average fractional NGS count over selection days 2 and 3 (reads of this peptide / all reads for the bait, averaged over …; that for chain 1 V5K, 0.000183 average fractional NGS count over selection days 2 and 3 (reads of this peptide / all reads for the bait, averaged over ….
Regarding chain 1 V5G, the screen value was 0.000935 average fractional NGS count over selection days 2 and 3 (reads of this peptide / all reads for the bait, averaged over ….
As to chain 1 V5P, the screen value is 0.00194 average fractional NGS count over selection days 2 and 3 (reads of this peptide / all reads for the bait, averaged over ….
As to chain 1 V5L, the screen value is 0.000716 average fractional NGS count over selection days 2 and 3 (reads of this peptide / all reads for the bait, averaged over ….
chain 1 V5E: the screen value is 0.00172 average fractional NGS count over selection days 2 and 3 (reads of this peptide / all reads for the bait, averaged over ….
On to chain 1 L4N, for which the screen value is 0.00115 average fractional NGS count over selection days 2 and 3 (reads of this peptide / all reads for the bait, averaged over ….
Take chain 1 L4K: the screen value is 0.000235 average fractional NGS count over selection days 2 and 3 (reads of this peptide / all reads for the bait, averaged over ….
For chain 1 L4S, the screen value was 0.000353 average fractional NGS count over selection days 2 and 3 (reads of this peptide / all reads for the bait, averaged over ….
For the variant chain 1 L4T, the screen value was 0.000116 average fractional NGS count over selection days 2 and 3 (reads of this peptide / all reads for the bait, averaged over ….
